Measurements taken from PMC8068770.
Results are given in words; binding and its absence hold for the method and conditions named. In cells and extracts the contact can be indirect. Some results given as binding are weak or reduced against the parent protein; the word gives no strength.

Chains of the proteins cited; added tags and fusions are not shown.
UniProt P35639: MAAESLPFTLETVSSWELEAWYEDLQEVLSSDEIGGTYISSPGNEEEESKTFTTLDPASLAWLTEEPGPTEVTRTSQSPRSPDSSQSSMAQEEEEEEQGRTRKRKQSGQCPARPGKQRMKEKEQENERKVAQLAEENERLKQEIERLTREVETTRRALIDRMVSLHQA
UniProt P97302: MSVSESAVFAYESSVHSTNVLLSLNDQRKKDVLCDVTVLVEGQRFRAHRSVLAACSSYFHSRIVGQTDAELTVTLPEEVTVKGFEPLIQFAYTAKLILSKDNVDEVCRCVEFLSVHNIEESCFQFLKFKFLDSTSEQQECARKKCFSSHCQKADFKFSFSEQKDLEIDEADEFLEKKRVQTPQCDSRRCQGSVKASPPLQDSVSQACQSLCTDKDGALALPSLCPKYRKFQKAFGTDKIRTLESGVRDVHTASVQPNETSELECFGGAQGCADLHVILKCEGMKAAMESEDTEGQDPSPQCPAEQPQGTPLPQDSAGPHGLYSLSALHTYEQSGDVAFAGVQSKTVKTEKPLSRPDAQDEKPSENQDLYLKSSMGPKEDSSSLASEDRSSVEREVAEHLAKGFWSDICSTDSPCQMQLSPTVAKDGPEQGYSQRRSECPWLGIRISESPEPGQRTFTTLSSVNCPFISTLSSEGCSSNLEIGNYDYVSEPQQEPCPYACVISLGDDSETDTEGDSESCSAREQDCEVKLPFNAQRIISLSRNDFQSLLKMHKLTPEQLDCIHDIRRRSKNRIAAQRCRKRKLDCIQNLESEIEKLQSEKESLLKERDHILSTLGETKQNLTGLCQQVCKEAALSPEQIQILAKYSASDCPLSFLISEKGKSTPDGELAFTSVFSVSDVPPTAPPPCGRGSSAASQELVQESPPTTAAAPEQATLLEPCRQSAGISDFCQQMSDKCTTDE
UniProt Q06348: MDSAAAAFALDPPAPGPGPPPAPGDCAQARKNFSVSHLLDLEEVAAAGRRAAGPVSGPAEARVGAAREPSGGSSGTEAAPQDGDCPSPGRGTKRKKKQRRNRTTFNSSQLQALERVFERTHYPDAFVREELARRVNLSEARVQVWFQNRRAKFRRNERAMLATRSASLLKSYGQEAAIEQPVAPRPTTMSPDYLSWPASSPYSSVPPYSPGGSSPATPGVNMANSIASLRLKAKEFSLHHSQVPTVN
UniProt Q61312: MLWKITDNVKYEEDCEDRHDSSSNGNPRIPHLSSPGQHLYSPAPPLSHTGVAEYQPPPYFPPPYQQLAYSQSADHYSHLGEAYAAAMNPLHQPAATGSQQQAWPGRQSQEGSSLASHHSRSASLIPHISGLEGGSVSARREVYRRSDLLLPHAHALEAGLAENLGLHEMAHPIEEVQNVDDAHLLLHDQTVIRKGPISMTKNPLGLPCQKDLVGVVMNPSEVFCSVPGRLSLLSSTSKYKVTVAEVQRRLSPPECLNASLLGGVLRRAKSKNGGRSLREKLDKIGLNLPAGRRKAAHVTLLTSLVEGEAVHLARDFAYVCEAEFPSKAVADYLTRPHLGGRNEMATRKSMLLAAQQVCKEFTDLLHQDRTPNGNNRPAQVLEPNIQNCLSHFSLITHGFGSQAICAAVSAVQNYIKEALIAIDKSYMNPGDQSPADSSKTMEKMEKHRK

T1: Arid4b (mouse (endogenous in CJ9 mESCs)) (UniProt A2CG63)
T1 sequence: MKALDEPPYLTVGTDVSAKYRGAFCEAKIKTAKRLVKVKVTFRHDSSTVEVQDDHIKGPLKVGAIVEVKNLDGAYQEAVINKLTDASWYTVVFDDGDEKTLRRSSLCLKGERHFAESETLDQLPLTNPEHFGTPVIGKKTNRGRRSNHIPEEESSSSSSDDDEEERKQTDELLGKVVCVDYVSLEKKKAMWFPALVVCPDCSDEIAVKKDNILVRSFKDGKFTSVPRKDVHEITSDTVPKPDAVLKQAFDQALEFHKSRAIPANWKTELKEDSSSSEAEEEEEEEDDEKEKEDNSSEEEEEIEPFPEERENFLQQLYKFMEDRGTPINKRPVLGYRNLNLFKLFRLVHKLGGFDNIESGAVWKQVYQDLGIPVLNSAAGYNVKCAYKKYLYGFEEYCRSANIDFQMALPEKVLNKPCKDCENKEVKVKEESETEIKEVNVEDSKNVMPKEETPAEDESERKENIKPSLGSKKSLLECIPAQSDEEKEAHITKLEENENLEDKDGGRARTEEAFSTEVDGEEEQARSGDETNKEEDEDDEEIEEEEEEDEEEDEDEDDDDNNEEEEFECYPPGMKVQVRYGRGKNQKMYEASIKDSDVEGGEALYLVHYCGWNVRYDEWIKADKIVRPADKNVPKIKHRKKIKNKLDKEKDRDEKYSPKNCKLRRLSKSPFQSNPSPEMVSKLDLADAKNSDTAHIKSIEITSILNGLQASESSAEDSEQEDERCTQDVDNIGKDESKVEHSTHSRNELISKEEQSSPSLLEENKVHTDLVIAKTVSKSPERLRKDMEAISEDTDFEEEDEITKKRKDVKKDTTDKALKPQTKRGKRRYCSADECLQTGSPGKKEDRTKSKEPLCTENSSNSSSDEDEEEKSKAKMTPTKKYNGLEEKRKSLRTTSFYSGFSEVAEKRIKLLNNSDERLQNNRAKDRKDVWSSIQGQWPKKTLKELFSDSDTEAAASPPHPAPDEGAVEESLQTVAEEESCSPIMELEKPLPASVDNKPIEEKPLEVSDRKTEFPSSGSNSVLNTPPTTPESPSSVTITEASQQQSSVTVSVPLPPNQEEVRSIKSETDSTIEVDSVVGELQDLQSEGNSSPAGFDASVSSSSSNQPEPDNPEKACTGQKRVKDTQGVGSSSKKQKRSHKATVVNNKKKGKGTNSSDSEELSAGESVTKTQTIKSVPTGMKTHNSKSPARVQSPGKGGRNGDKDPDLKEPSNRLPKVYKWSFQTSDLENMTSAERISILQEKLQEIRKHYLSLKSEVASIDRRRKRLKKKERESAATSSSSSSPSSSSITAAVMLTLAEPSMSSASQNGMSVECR


Assays:
[1] = molecular target: T1, Arid4b (mouse (endogenous in CJ9 mESCs)); assay: co-IP; endogenous co-IP from 400 ug wild-type (CJ9) mESC nuclear extract with 5 ug anti-Arid4b antibody, protein-G magnetic beads, extra washes in NP-40 buffer; controls: rabbit IgG IP and Arid4b antibody IP from arid4b-delta nuclear extract; Western blot
[2] = molecular target: T1, Arid4b (mouse (endogenous in CJ9 mESCs)); assay: proximity ligation; Duolink In Situ Red kit with Arid4b (rabbit) and Tfap2c (mouse) primary antibodies on wild-type (CJ9) mESCs; confocal microscopy; control without primary antibodies
[3] = molecular target: T1, Arid4b (mouse (endogenous in CJ9 mESCs)); assay: co-IP; endogenous co-IP from 400 ug wild-type (CJ9) mESC nuclear extract with 5 ug anti-Arid4b antibody, protein-G magnetic beads, extra washes in NP-40 buffer; controls: rabbit IgG IP and Arid4b antibody IP from arid4b-delta nuclear extract; Western blot; remark: listed apart in the source

| binding [1] | binding [2] | binding [3] | Molecule |
| --- | --- | --- | --- |
| no binding |  |  | Ddit3 (from UniProt P35639 1-168) |
| no binding |  |  | Bach1 (from UniProt P97302 1-739) |

More lines, now with the values behind:

| Molecule | binding [1] | binding [2] | binding [3] |
| --- | --- | --- | --- |
| Prrx2 (from UniProt Q06348 1-247) | no binding |  |  |
| Tfap2c (from UniProt Q61312 1-449) | binds weakly | binds |  |
| Sin3a (protein, UniProt Q60520 1-1274) MKRRLDDQESPVYAAQQRRIPGSTEAFSHQHRVLAPAPPVYEAVSETMQSATGIQYSVAPNYQVSAVPQSSGSHGPAIAAVHSSHHHPTAVQPHGGQVVQSHAHPAPPVAPVQGQQQFQRLKVEDALSYLDQVKLQFGSQPQVYNDFLDIMKEFKSQSIDTPGVISRVSQLFKGHPDLIMGFNTFLPPGYKIEVQTNDMVNVTTPGQVHQIPTHGIQPQPQPPPQHPSQPSSQSAPTPAQPAPQPTAAKVSKPSQLQAHTPASQQTPPLPPYASPRSPPVQPHTPVTISLGTAPSLQNNQPVEFNHAINYVNKIKNRFQGQPDIYKAFLEILHTYQKEQRNAKEAGGNYTPALTEQEVYAQVARLFKNQEDLLSEFGQFLPDANSSVLLSKTTAEKVDSVRNDHGGTVKKPQLNNKPQRPSQNGCQIRRHSGTGATPPVKKKPKLMSLKESSMADASKHGVGTESLFFDKVRKALRSAEAYENFLRCLVIFNQEVISRAELVQLVSPFLGKFPELFNWFKNFLGYKESVHLESFPKERATEGIAMEIDYASCKRLGSSYRALPKSYQQPKCTGRTPLCKEVLNDTWVSFPSWSEDSTFVSSKKTQYEEHIYRCEDERFELDVVLETNLATIRVLEAIQKKLSRLSAEEQAKFRLDNTLGGTSEVIHRKALQRIYADKAADIIDGLRKNPSIAVPIVLKRLKMKEEEWREAQRGFNKVWREQNEKYYLKSLDHQGINFKQNDTKVLRSKSLLNEIESIYDERQEQATEENAGVPVGPHLSLAYEDKQILEDAAALIIHHVKRQTGIQKEDKYKIKQIMHHFIPDLLFAQRGDLSDVEEEEEEEMDVDEATGAPKKHNGVGGSPPKSKLLFSNTAAQKLRGMDEVYNLFYVNNNWYIFMRLHQILCLRLLRICSQAERQIEEENREREWEREVLGIKRDKSDSPAIQLRLKEPMDVDVEDYYPAFLDMVRSLLDGNIDSSQYEDSLREMFTIHAYIAFTMDKLIQSIVRQLQHIVSDEVCVQVTDLYLAENNNGATGGQLNSQTSRSLLESAYQRKAEQLMSDENCFKLMFIQSQGQVQLTVELLDTEEENSDDPVEAERWSDYVERYMSSDTTSPELREHLAQKPVFLPRNLRRIRKCQRGREQQEKEGKEGNSKKTMENVESLDKLECRFKLNSYKMVYVIKSEDYMYRRTALLRAHQSHERVSKRLHQRFQAWVDKWTKEHVPREMAAETSKWLMGEGLEGLVPCTTTCDTETLHFVSINKYRVKYGTVFKAP |  |  | binds |
